This data set concerns the molecule itself. The data set can be described thus: density gradient centrifugation.

B1: Tau-RD* (FLAG-tagged human Tau-RD, […], ΔK280) (domain or fragment)
chain: not shown
Turning to B1, the binding result was “binds”.

For the origin of these results see publication doi:10.1101/522284 (bioRxiv, 2019).
